# The supplement of paper PMC11181314
# The list shows a part of the results. Single values of this set are uncertain.
# Test system: U2OS
# Assay: Cell Painting induction (percent of morphological features significantly changed vs DMSO); higher = stronger morphological change
# Details: 10 µM, 20 h
# Description: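 Cell Painting assay in U2OS cells: compounds at 10 µM for 20 h, six dyes, 579 robust CellProfiler features as Z-scores vs DMSO median (MAD). Induction is the % of significantly changed features (active if ≥5%); relative cell count is in % of DMSO. The primary run holds DCM compounds preselected for induction ≥10%; the confirmation repeat defines active compounds (370 of 549). Replicate agreement is low, attributed to precipitation.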
# [1] = run: primary screen (compounds selected for induction >=10%)
# 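Further: stains mark DNA, RNA and nucleoli, ER, actin, Golgi, plasma membrane and mitochondria, read by high-content imaging, with DMSO controls at matching solvent concentration.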
Structure (SMILES),Cell Painting induction (run: confirmation repeat),Cell Painting induction [1] [%]
CCOC(=O)c1ccc(NC(=O)C2CCN(S(=O)(=O)c3ccccc3)CC2)cc1,active: 25.2%,59.8
CCOC(=O)N1CCc2c(sc3c2c(=O)n(Cc2ccccc2)c(=O)n3CC(=O)NCC2CCCO2)C1 (stereo not drawn),active: 11.2%,12.4
COc1ccccc1NC(=O)COc1ccc(-c2nn(C)c(=O)c3ccccc23)cc1,inactive: 0.2%,10.2
Cc1cc(C)cc(NC(=S)N(CCCN2CCN(C)CC2)Cc2cccs2)c1,active: 14.7%,21.4
COc1ccc(N2C(=S)NC3c4cc(Cl)ccc4OC2(C)C3C(=O)N(C)C)cc1 (stereo not drawn),active: 20.7%,20.4
CCOC(=O)c1c(CN2CCOCC2)n(-c2ccccc2)c2cc(Br)c(O)c(CN(C)C)c12,active: 11.4%,18.1
O=C(Cn1c(O)c(/N=N/C(=O)c2ccncc2)c2ccccc21)Nc1ccccc1,inactive: 0%,15.5
CN1CCN(c2ccccc2NC(=O)Cn2ncc3c([nH]c4ccccc43)c2=O)CC1,active: 37.8%,37.7
COc1ccccc1N(CC(O)Cn1c(C)nc2ccccc21)S(=O)(=O)c1ccccc1 (stereo not drawn),inactive: 1%,13.8
Cc1ccc(N2CCN(C(=O)C3CCN(S(=O)(=O)c4cccc5nsnc45)CC3)CC2C)cc1 (stereo not drawn),inactive: 0%,23.3
COc1cc(-c2ccc(NC(=O)c3ccc(C)cc3)c(OC)c2)ccc1NC(=O)c1ccc(C)cc1,inactive: 0.7%,34.5
O=c1c(S(=O)(=O)c2ccc(Cl)cc2)cn(Cc2ccccc2F)c2ccc(F)cc12,active: 22.5%,20.9
CN(C)CCCNc1oc(-c2ccccc2Cl)nc1S(=O)(=O)c1ccccc1,active: 56.6%,45.9
Cc1cccc(-n2c(O)nc3c(C(N)=O)nc(-c4ccc(C(C)C)cc4)nc32)c1,active: 50.9%,39.2
COc1ccccc1NC(=O)c1cnc2c(-c3ccccc3)c(C)nn2c1C,active: 7.6%,15.5
COc1ccccc1N1CCN(C(=O)C2CCN(S(=O)(=O)c3ccc4c(c3)CC(C)N4C(C)=O)CC2)CC1 (stereo not drawn),active: 24.5%,25.2
CCOC(=O)c1cn2nc(-c3ccc(OCC)cc3)cc2nc1C1CCN(C(=O)OC(C)(C)C)CC1,inactive: 2.1%,30.1

Structure (SMILES),Cell Painting induction (run: confirmation repeat),Cell Painting induction [1] [%]
COc1ccccc1S(=O)(=O)Cc1ccc(C(=O)NCCCN2CCN(c3ccc(F)cc3)CC2)o1,active: 36.1%,46.5
COc1ccc(N(CC(=O)Nc2ccc(C(C)C)cc2)S(=O)(=O)c2c(C)noc2C)cc1,active: 27.1%,24
CCOc1ccccc1CNC(=O)C1CCN(C(=O)N2CC(C)Oc3ccc(C)cc32)CC1 (stereo not drawn),inactive: 2.2%,10
CCOc1ccccc1Nc1nc2c(S(=O)(=O)c3ccccc3)nnn2c2ccccc12,inactive: 0.2%,20.9
COc1cc(Nc2nc3ccc(Cl)cc3n3cnnc23)cc(OC)c1OC,active: 65.1%,17.3
COc1ccc(Nc2nc(NCc3ccc(C)cc3)nc3c2cnn3C)cc1,active: 22.6%,11.4
COC(=O)c1c(NC(=O)c2c(OC)cccc2OC)sc2c1C(C(=O)OC)CC2 (stereo not drawn),inactive: 4.5%,15.4
Cc1nn(C(C)C(=O)NCCCN(Cc2ccccc2)C(C)C)c(=O)c2c1sc1ccccc12 (stereo not drawn),active: 46.8%,56.1
CC(C)OC(=O)Nc1ccc2c(c1)N(C(=O)CCN1CCOCC1)c1ccccc1CC2,active: 8.3%,17.4
Cc1noc(C)c1S(=O)(=O)N(CC(=O)N1CCc2ccccc21)c1ccc(C(C)C)cc1,active: 9.3%,13.1
CC(C)c1ccc(NC(=O)C2CCN(S(=O)(=O)c3ccc4c(c3)NC(=O)CO4)CC2)cc1,active: 20.2%,20.6
COc1ccc(-c2c(C)nn3c(N4CCN(c5cccc(Cl)c5)CC4)cc(C)nc23)cc1OC,active: 16.6%,28
COc1cc(OC)c(NC(=O)C2CCN(S(=O)(=O)c3ccc4c(c3)CC(C)N4C(C)=O)CC2)cc1Cl (stereo not drawn),active: 8.1%,15.5
CCOc1cc2[nH]c(=S)n(CCN3CCCCC3CC)c(=O)c2cc1OCC (stereo not drawn),active: 35.9%,42
Cc1ccc(N(Cc2ccc(C(=O)Nc3cc(Cl)ccc3C)cc2)S(C)(=O)=O)cc1C,active: 5.4%,20.6
CO/C(O)=C1\C(C)=Nc2ncnn2C1c1ccc(OC(=O)c2ccccc2)cc1 (stereo not drawn),active: 20.6%,11.7
Cc1c(C(=O)Nc2ccc(F)cc2)oc2ccc(S(=O)(=O)N3CCCC3)cc12,active: 30.6%,27.8
